# “And” between values parts separate entries of the source, which are not always exact repeats. Equal values may be shown once. ± gives the standard deviation of the averaged measurements. Over roughly 2,900 compounds, “NF-kB SEAP reporter activity, fold change vs agonist alone” has its median near 0.99; the highest 2% begin near 2.6. The list shows a part of the results.
# Experiments:
# RAW-Dual [1] = assay: NF-kB SEAP reporter activity, fold change vs agonist alone; higher = enhanced NF-kB activity; settings: library stock concentration (final ~1000-fold dilution): 10 mM
# Procedure, shortened: (§1)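 Library stock was pin-tooled at 50 nL into 384-well plates of RAW-Dual macrophages (50,000 cells/well, DMEM), followed 1 h later by a PRR agonist, and the cells were kept at 37 °C, 5% CO2. Supernatant collected after 20 hours was read for IRF by QuantiLuc luminescence and for NF-κB by QuantiBlue absorbance at 620 nm. Reporter activity is fold change over agonist-alone wells, and a well counted as cytotoxic when its IncuCyte confluency was below 70% of agonist controls in both mask sets.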
# RAW-Dual [2] = assay: NF-kB SEAP reporter activity, fold change vs agonist alone; cytotoxicity flag (confluency mask): not cytotoxic; higher = enhanced NF-kB activity
# Procedure, shortened: as §1
# RAW-Dual [3] = assay: NF-kB SEAP reporter activity, fold change vs agonist alone; cytotoxicity flag (confluency mask): cytotoxic (confluency <70% of control); higher = enhanced NF-kB activity
# Procedure, shortened: as §1
# [4] = cytotoxicity flag (confluency mask): not cytotoxic, agonist: Imiquimod (TLR7) […]
# [5] = cytotoxicity flag (confluency mask): not cytotoxic, agonist: MPLA (TLR4) […]
# [6] = agonist: ODN 1826 (TLR9) 0.5 ug/mL
# [7] = agonist: Pam2CSK4 (TLR2/6) 0.1 ug/mL
# [8] = agonist: Pam3CSK4 (TLR2/1) 0.1 ug/mL
# [9] = cytotoxicity flag (confluency mask): cytotoxic (confluency <70% of control), agonist: Imiquimod (TLR7) […]
# [10] = cytotoxicity flag (confluency mask): cytotoxic (confluency <70% of control), agonist: MPLA (TLR4) […]
smiles,measurement,setting,value
COC(=O)c1sccc1S(=O)(=O)Nc1ccc(Nc2ccccc2)cc1OC,NF-kB SEAP reporter activity,RAW-Dual [1]; [4],1.07
same,NF-kB SEAP reporter activity,RAW-Dual [1]; [5],1.11
COC(=O)c1sccc1S(=O)(=O)Nc1ccc(Nc2ccccc2)cc1OC (library stock concentration (final ~1000-fold dilution): 10 mM),NF-kB SEAP reporter activity,RAW-Dual [2]; agonist: LPS (TLR4) 0.1 ug/mL,1.72
same,NF-kB SEAP reporter activity,RAW-Dual [2]; [6],0.911
same,NF-kB SEAP reporter activity,RAW-Dual [2]; [7],0.821
same,NF-kB SEAP reporter activity,RAW-Dual [2]; [8],0.872
C=CC(=O)N1CCCC(n2nc(-c3ccc(Oc4ccccc4)cc3)c(C(N)=O)c2N)C1 (stereo not drawn) (library stock concentration (final ~1000-fold dilution): 10 mM),NF-kB SEAP reporter activity,RAW-Dual [2]; agonist: LPS (TLR4) 0.1 ug/mL,0.404
same,NF-kB SEAP reporter activity,RAW-Dual [2]; [6],0.546
same,NF-kB SEAP reporter activity,RAW-Dual [2]; [7],0.224
same,NF-kB SEAP reporter activity,RAW-Dual [2]; [8],0.272
C=CC(=O)N1CCCC(n2nc(-c3ccc(Oc4ccccc4)cc3)c(C(N)=O)c2N)C1 (stereo not drawn),NF-kB SEAP reporter activity,RAW-Dual [1]; [4],0.67
same,NF-kB SEAP reporter activity,RAW-Dual [1]; [5],0.637
CCC1(O)C(=O)OCc2c1cc1n(c2=O)Cc2cc3cc(O)ccc3nc2-1 (stereo not drawn),NF-kB SEAP reporter activity,RAW-Dual [1]; [9],2.34
same,NF-kB SEAP reporter activity,RAW-Dual [1]; [10],2
same,NF-kB SEAP reporter activity,RAW-Dual [1]; [4],0.896
same,NF-kB SEAP reporter activity,RAW-Dual [1]; [5],0.856
CCC1(O)C(=O)OCc2c1cc1n(c2=O)Cc2cc3cc(O)ccc3nc2-1 (stereo not drawn) (library stock concentration (final ~1000-fold dilution): 10 mM),NF-kB SEAP reporter activity,RAW-Dual [2]; agonist: LPS (TLR4) 0.1 ug/mL,1.08
same,NF-kB SEAP reporter activity,RAW-Dual [2]; [6],0.937
same,NF-kB SEAP reporter activity,RAW-Dual [2]; [7],1.07
same,NF-kB SEAP reporter activity,RAW-Dual [2]; [8],1.14
same,NF-kB SEAP reporter activity,RAW-Dual [3]; agonist: LPS (TLR4) 0.1 ug/mL,1.9
same,NF-kB SEAP reporter activity,RAW-Dual [3]; [6],2.17
same,NF-kB SEAP reporter activity,RAW-Dual [3]; [7],1.03
same,NF-kB SEAP reporter activity,RAW-Dual [3]; [8],1.5
O=C(/C=C/c1ccc(O)c(O)c1)O[C@@H]1C[C@](OC(=O)/C=C/c2ccc(O)c(O)c2)(C(=O)O)C[C@@H](O)[C@H]1O,NF-kB SEAP reporter activity,RAW-Dual [1]; [4],0.966
same,NF-kB SEAP reporter activity,RAW-Dual [1]; [5],1.12
O=C(/C=C/c1ccc(O)c(O)c1)O[C@@H]1C[C@](OC(=O)/C=C/c2ccc(O)c(O)c2)(C(=O)O)C[C@@H](O)[C@H]1O (library stock concentration (final ~1000-fold dilution): 10 mM),NF-kB SEAP reporter activity,RAW-Dual [2]; agonist: LPS (TLR4) 0.1 ug/mL,0.843
same,NF-kB SEAP reporter activity,RAW-Dual [2]; [6],0.852
same,NF-kB SEAP reporter activity,RAW-Dual [2]; [7],0.718
same,NF-kB SEAP reporter activity,RAW-Dual [2]; [8],1.06
CC1OC(OC2C(Oc3cc(O)c(C(=O)CCc4ccc(O)cc4)c(O)c3)OC(CO)C(O)C2O)C(O)C(O)C1O (stereo not drawn),NF-kB SEAP reporter activity,RAW-Dual [1]; [4],0.957
same,NF-kB SEAP reporter activity,RAW-Dual [1]; [5],1.03
CC1OC(OC2C(Oc3cc(O)c(C(=O)CCc4ccc(O)cc4)c(O)c3)OC(CO)C(O)C2O)C(O)C(O)C1O (stereo not drawn) (library stock concentration (final ~1000-fold dilution): 10 mM),NF-kB SEAP reporter activity,RAW-Dual [2]; agonist: LPS (TLR4) 0.1 ug/mL,0.867
same,NF-kB SEAP reporter activity,RAW-Dual [2]; [6],0.991
same,NF-kB SEAP reporter activity,RAW-Dual [2]; [7],0.784
same,NF-kB SEAP reporter activity,RAW-Dual [2]; [8],1.06
C[N+]1(C)CCC[C@H]1C(=O)[O-],NF-kB SEAP reporter activity,RAW-Dual [1]; [4],0.943
same,NF-kB SEAP reporter activity,RAW-Dual [1]; [5],1.04
C[N+]1(C)CCC[C@H]1C(=O)[O-] (library stock concentration (final ~1000-fold dilution): 10 mM),NF-kB SEAP reporter activity,RAW-Dual [2]; agonist: LPS (TLR4) 0.1 ug/mL,1.31
same,NF-kB SEAP reporter activity,RAW-Dual [2]; [6],1.1
same,NF-kB SEAP reporter activity,RAW-Dual [2]; [7],1.17
same,NF-kB SEAP reporter activity,RAW-Dual [2]; [8],0.89
CC1(C)C(C(=O)O)N2C(=O)CC2S1(=O)=O (stereo not drawn) (library stock concentration (final ~1000-fold dilution): 10 mM),NF-kB SEAP reporter activity,RAW-Dual [2]; agonist: LPS (TLR4) 0.1 ug/mL,1.04 and 0.881
same,NF-kB SEAP reporter activity,RAW-Dual [2]; [6],1.01 and 1.03
same,NF-kB SEAP reporter activity,RAW-Dual [2]; [7],0.96 and 1.14
same,NF-kB SEAP reporter activity,RAW-Dual [2]; [8],1.05 and 1.19
O=C(Nc1ccc(Cl)cc1)C1CCCN(C(=O)c2cccc(-c3ccco3)c2)C1 (stereo not drawn),NF-kB SEAP reporter activity,RAW-Dual [1]; [4],0.816
same,NF-kB SEAP reporter activity,RAW-Dual [1]; [5],1.03
O=C(Nc1ccc(Cl)cc1)C1CCCN(C(=O)c2cccc(-c3ccco3)c2)C1 (stereo not drawn) (library stock concentration (final ~1000-fold dilution): 10 mM),NF-kB SEAP reporter activity,RAW-Dual [2]; agonist: LPS (TLR4) 0.1 ug/mL,1.39
same,NF-kB SEAP reporter activity,RAW-Dual [2]; [6],0.788
same,NF-kB SEAP reporter activity,RAW-Dual [2]; [7],0.498
same,NF-kB SEAP reporter activity,RAW-Dual [2]; [8],0.668
CC1(C)CCC2(NC(=O)C(C)(F)F)CCC3(C)C(C(=O)C=C4C5(C)C=C(C#N)C(=O)C(C)(C)C5CCC43C)C2C1 (stereo not drawn) (library stock concentration (final ~1000-fold dilution): 10 mM),NF-kB SEAP reporter activity,RAW-Dual [3]; agonist: LPS (TLR4) 0.1 ug/mL,0.358 ± 0.053
same,NF-kB SEAP reporter activity,RAW-Dual [3]; [6],0.173 ± 0.0087
same,NF-kB SEAP reporter activity,RAW-Dual [3]; [7],0.0759 ± 0.018
same,NF-kB SEAP reporter activity,RAW-Dual [3]; [8],0.163 ± 0.0017
CC1(C)CCC2(NC(=O)C(C)(F)F)CCC3(C)C(C(=O)C=C4C5(C)C=C(C#N)C(=O)C(C)(C)C5CCC43C)C2C1 (stereo not drawn),NF-kB SEAP reporter activity,RAW-Dual [1]; [9],0.14 ± 0.006
same,NF-kB SEAP reporter activity,RAW-Dual [1]; [10],0.254 ± 0.0072
CC(C)N(CCCNC(=O)Nc1ccc(C(C)(C)C)cc1)CC1OC(n2cc(Br)c3c(N)ncnc32)C(O)C1O (stereo not drawn) (library stock concentration (final ~1000-fold dilution): 10 mM),NF-kB SEAP reporter activity,RAW-Dual [2]; agonist: LPS (TLR4) 0.1 ug/mL,1.08
same,NF-kB SEAP reporter activity,RAW-Dual [2]; [6],0.63
same,NF-kB SEAP reporter activity,RAW-Dual [2]; [7],1.01
same,NF-kB SEAP reporter activity,RAW-Dual [2]; [8],0.996
CC(C)N(CCCNC(=O)Nc1ccc(C(C)(C)C)cc1)CC1OC(n2cc(Br)c3c(N)ncnc32)C(O)C1O (stereo not drawn),NF-kB SEAP reporter activity,RAW-Dual [1]; [4],1.18
same,NF-kB SEAP reporter activity,RAW-Dual [1]; [5],1.39
CC(C)(C(=O)c1cccnc1)c1cccnc1,NF-kB SEAP reporter activity,RAW-Dual [1]; [5],1.01
CC(C)(C(=O)c1cccnc1)c1cccnc1 (library stock concentration (final ~1000-fold dilution): 10 mM),NF-kB SEAP reporter activity,RAW-Dual [2]; agonist: LPS (TLR4) 0.1 ug/mL,1.07
same,NF-kB SEAP reporter activity,RAW-Dual [2]; [6],0.974
same,NF-kB SEAP reporter activity,RAW-Dual [2]; [7],1.08
same,NF-kB SEAP reporter activity,RAW-Dual [2]; [8],1.08
O=C(Cc1ccc(-c2ccc(OCCN3CCOCC3)cc2)cn1)NCc1ccccc1 (library stock concentration (final ~1000-fold dilution): 10 mM),NF-kB SEAP reporter activity,RAW-Dual [2]; agonist: LPS (TLR4) 0.1 ug/mL,4.55
same,NF-kB SEAP reporter activity,RAW-Dual [2]; [6],3.36
O=C(Cc1ccc(-c2ccc(OCCN3CCOCC3)cc2)cn1)NCc1ccccc1,NF-kB SEAP reporter activity,RAW-Dual [1]; [4],2.63
O=C(NOCCO)c1ccc2cncn2c1Nc1ccc(I)cc1F,NF-kB SEAP reporter activity,RAW-Dual [1]; [4],0.121
same,NF-kB SEAP reporter activity,RAW-Dual [1]; [5],0.192
O=C(NOCCO)c1ccc2cncn2c1Nc1ccc(I)cc1F (library stock concentration (final ~1000-fold dilution): 10 mM),NF-kB SEAP reporter activity,RAW-Dual [2]; agonist: LPS (TLR4) 0.1 ug/mL,0.178
same,NF-kB SEAP reporter activity,RAW-Dual [2]; [6],0.3
same,NF-kB SEAP reporter activity,RAW-Dual [2]; [7],0.0594
same,NF-kB SEAP reporter activity,RAW-Dual [2]; [8],0.121
